Among all 48,000 compounds or so, about 550 (1.1%) were called active. Another 4% or so got no clear call; they are omitted. Rule as the data show it: active = potency below about 15 µM; inconclusive = mostly about 16 µM to 33 µM; inactive = weaker than that. This is one part of the list.
Potency is read from the fitted curve at half-maximal effect.

Sequence of UniProt P04062 (P04062 whole entry, looked up): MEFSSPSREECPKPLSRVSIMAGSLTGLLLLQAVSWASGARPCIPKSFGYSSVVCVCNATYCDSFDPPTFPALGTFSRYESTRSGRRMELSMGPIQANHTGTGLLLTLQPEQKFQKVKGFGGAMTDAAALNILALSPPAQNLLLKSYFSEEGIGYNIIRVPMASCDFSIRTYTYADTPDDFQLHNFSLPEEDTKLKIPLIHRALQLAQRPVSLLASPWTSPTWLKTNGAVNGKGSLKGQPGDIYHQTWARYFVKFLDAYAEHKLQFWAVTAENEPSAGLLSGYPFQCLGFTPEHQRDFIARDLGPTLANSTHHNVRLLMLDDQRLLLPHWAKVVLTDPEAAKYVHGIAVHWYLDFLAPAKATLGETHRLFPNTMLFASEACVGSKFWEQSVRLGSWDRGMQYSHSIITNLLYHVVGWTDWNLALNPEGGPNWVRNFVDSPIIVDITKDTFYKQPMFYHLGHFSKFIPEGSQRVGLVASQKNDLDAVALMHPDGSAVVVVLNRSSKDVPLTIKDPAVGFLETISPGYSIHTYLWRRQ

In this assay the target is Lysosomal acid glucosylceramidase (Homo sapiens) (UniProt P04062). The assay is described as follows: Glucocerebrosidase.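 Also: the screen sought inhibitors.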 To be noted: purified enzyme, resorufin glucoside fluorescence (screen aimed at inhibitors), 20 min. The essentials:
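Wild-type enzyme at 0.2 nM final in 50mM citric acid/KH2PO4, 10mM sodium taurocholate, 0.01% tween-20, pH 5.9, with resorufin beta-D-glucopyranoside at 30 uM final. Compounds titrated, 20 min at RT, red fluorescence read; AC50 from titration.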
Take `CCc1ccccc1N(C)C(=O)CCc1nc(-c2ccc(C)cc2)no1`: the Potency is inactive: > 76.9 µM. As for `Cc1cc(C(F)(F)F)nn1CC(=O)Nc1cccnc1`, the figure is inactive: > 76.9 µM. Regarding `CCOC(=O)C1=C(C)NC(=O)C1(NC(=O)c1cccnc1)C(F)(F)F` (stereo not drawn), the Potency was inactive: > 76.9 µM.

For the molecule `O=c1c2ccccc2nnn1CSc1ncnc2ccccc12`, the Potency was inactive: > 76.9 µM. To `COc1nc(NCC(C)C)nc(Oc2ccc(OCc3ccccc3)nn2)n1` belongs inactive: > 76.9 µM; to `O=C(CCCCCN1C(=O)c2ccccc2C1=O)NCc1ccccn1`, inactive: > 76.9 µM; to `S=c1[nH]nc(-c2cccnc2)o1`, inactive: > 76.9 µM. With `COCc1nc(-c2cc(Br)ccc2OC)no1`, the Potency is inactive: > 76.9 µM.

Regarding `COC(=O)C1CCCN1C(=O)c1cccs1` (stereo not drawn), the Potency was inactive: > 76.9 µM. As for `COc1ccc(CCNC(=O)c2ccc(N3CCCC3=O)cc2)cc1OC`, the figure is inactive: > 76.9 µM. To `CCOC(=O)c1cccc(NC(=O)Cn2c(CC(=O)NC)nc3ccccc32)c1` belongs inactive: > 76.9 µM; to `Cc1ccc(-n2nc3c(c2NC(=O)c2ccc(S(=O)(=O)N4CCOCC4)cc2)CSC3)c(C)c1`, inactive: > 76.9 µM. As for `CC(=O)c1ccc(OCCCC(=O)OCC(=O)N2CCN(c3ccccc3)CC2)cc1`, the figure is inactive: > 76.9 µM. `COC(=O)c1cc(COC(=O)c2ccc(OC)c(S(=O)(=O)N3CCCC3)c2)oc1C`: the Potency was inactive: > 76.9 µM.

As for `COC(=O)c1cc(NC(=O)C2COc3ccccc3O2)ccc1Cl` (stereo not drawn), the Potency was inactive: > 76.9 µM. To `Cc1cccn2c(=O)c3cc(C(=O)N4CCN(c5ccccc5)CC4)n(C)c3nc12` belongs inactive: > 76.9 µM; to `COc1cccc(OC)c1-c1nnc(-c2cn(C)c3ccccc23)o1`, inactive: > 76.9 µM. As for `CCN(CC)C(=O)CN(c1cc(Cl)ccc1OC)S(C)(=O)=O`, the figure is inactive: > 76.9 µM. Take `COc1cccc(NC(=O)CSc2nc(N)cc(N)n2)c1`: the Potency is inactive: > 76.9 µM. To `Cc1oc2cc3c(C(=O)N4CCCCC4)c(C)oc3cc2c1C(=O)N1CCCCC1` belongs inactive: > 76.9 µM; to `COc1ccccc1N1CCN(CC(O)COc2ccc3c(C)cc(=O)oc3c2)CC1` (stereo not drawn), inactive: > 76.9 µM. As for `COc1ccc(CCNC(=O)CSc2nnc(-c3ccc(F)cc3)o2)cc1OC`, the figure is inactive: > 76.9 µM. As to `Cc1occc1C(=O)N1CCN(C(c2ccccc2)c2ccccc2)CC1`, the Potency is inactive: > 76.9 µM.

As to `Fc1ccc(OCc2nn3c(Cn4nnc5ccccc54)nnc3s2)cc1`, the Potency was inactive: > 76.9 µM. To `CCOC(=O)CNC(=O)CSc1nnc(Cn2c(=O)sc3ccccc32)n1-c1ccccc1C` belongs inactive: > 76.9 µM; to `COc1ccc(C2CC(=O)C3=C(C2)Nc2ccccc2N(C(=O)C2CC2)C3c2cccnc2)cc1OC` (stereo not drawn), inactive: > 76.9 µM. To `C=CCN(CC(=O)NCc1ccccc1)C(=O)c1csnn1` belongs inactive: > 76.9 µM; to `CCOc1ccc(NC(=O)CN2CCN(S(=O)(=O)c3ccc(Cl)cc3)CC2)cc1`, inactive: > 76.9 µM. As for `Cc1cc(-c2nnc(SCC(=O)N3C(C)CCCC3C)o2)no1` (stereo not drawn), the figure is inactive: > 76.9 µM. Take `N#CC1=C(N)OC2=C(C(=O)CCC2)C1c1ccncc1` (stereo not drawn): the Potency is inactive: > 76.9 µM. To `Cn1c(COc2ccc(Cl)cc2)nc2ccccc2c1=O` belongs inactive: > 76.9 µM. In the case of `CCN(CCCNC(=O)CNC(=O)Cn1cnc2ccccc2c1=O)c1ccccc1`, the Potency is inactive: > 76.9 µM. Take `CC1(C)NC(=O)N(CCCCOc2cccc(C(F)(F)F)c2)C1=O`: the Potency was inactive: > 76.9 µM. To `Cc1ccccc1-n1nnnc1SCc1ncc(-c2ccccc2)o1` belongs inactive: > 76.9 µM; to `CCC1CCCCN1C(=O)COC(=O)c1cc2ccccc2cc1O` (stereo not drawn), inactive: > 76.9 µM; to `Cc1[nH]nc2ncc(C(=O)c3ccccc3O)cc12`, inactive: > 76.9 µM. As for `O=C(Oc1ccc(Cl)c2cccnc12)N1CCOCC1`, the figure is inactive: > 76.9 µM; as for `c1nc(N2CCC3(CC2)OCCO3)c2c3c(sc2n1)CCCC3`, inactive: > 76.9 µM.

`CCOC(=O)N1CCC2(O)CCCCC2C1c1ccc(F)cc1` (stereo not drawn): the Potency was inactive: > 76.9 µM. Consider `Clc1ccc(Cn2ncc3c(N4CCCC4)ncnc32)cc1`, for which the Potency is inactive: > 76.9 µM. In the case of `O=c1cc(CO)oc(C(Nc2ccccn2)c2ccc(C(F)(F)F)cc2)c1O` (stereo not drawn), the Potency was inactive: > 76.9 µM.

In the case of `COC(=O)CSc1nc2ccccc2nc1SCC(=O)OC`, the Potency was inactive: > 76.9 µM. Take `Cc1cc(C)c(-c2cc(C(F)(F)F)no2)c(=O)[nH]1`: the Potency is inactive: > 76.9 µM. Regarding `CCN(CC)CCn1c(NCc2ccc(OC)cc2)nc2ccccc21`, the Potency is inactive: > 76.9 µM. Consider `CCc1nnc(NC(=O)c2ccc(S(=O)(=O)N(CC)Cc3ccccc3)cc2)o1`, for which the Potency is active: 13.5 µM. Turning to `O=C(O)C1C2C=CC(O2)C1C(=O)Nc1ccc(S(=O)(=O)N2CCc3ccccc32)cc1` (stereo not drawn), the Potency was inactive: > 76.9 µM. As for `CCCCCCn1c(=O)c(-c2nc3ccccc3c(=O)[nH]2)c(O)c2ccccc21`, the Potency is inactive: > 76.9 µM. As for `Cc1ccc(C)c(OCCCN2CCCC2)c1`, the figure is inactive: > 15.4 µM; as for `COc1ccc(-c2ccc(-c3noc(-c4ccccc4)n3)c(OC)n2)cc1`, active: 4.95 µM.

With `CSc1nc(SC)c2c3c(oc2n1)COC(C)(C)C3`, the Potency was inactive: > 76.9 µM. To `O=C(Nc1cc(C(F)(F)F)ccc1N1CCOCC1)c1cccnc1` belongs inactive: > 76.9 µM; to `CN(C)CCn1c(C(=O)O)cc2ccccc21`, inactive: > 76.9 µM; to `N#CC12CCCCC1CC1CCCCC1(C#N)N2CCO` (stereo not drawn), inactive: > 76.9 µM. For `Cc1ccc(NC2CC(=O)N(c3ccc(N4CCCCC4)cc3)C2=O)cc1` (stereo not drawn), the Potency is inactive: > 76.9 µM. To `Cc1ccc(C)n1NC(=O)c1cccs1` belongs inactive: > 76.9 µM. In the case of `CCOC(=O)N1CCC(NC(=O)c2cc3c(-c4cccc(OC)c4)nn(C)c3s2)CC1`, the Potency is inactive: > 76.9 µM.

On to `CCOC(=O)C1CCCN(C(=O)Cc2c(C(=O)O)[nH]c3ccccc23)C1` (stereo not drawn), for which the Potency was inactive: > 76.9 µM. Regarding `COc1ccc(OC)c(S(=O)(=O)N2CCCCC2C(=O)N2CCN(c3ccccn3)CC2)c1` (stereo not drawn), the Potency was inactive: > 76.9 µM.
